In article PMC4336329 (PLoS ONE, 2015):
The whole screen tested about 310,000 compounds, of which about 14,000 (4.5%) showed an effect of 50% or more. The effect is printed as a negative number. This is one part of the list.

Target: human ether-à-go-go-related gene (hERG) potassium channel (human, UniProt Q12809)
Test: primary screen, population patch clamp on CHO cells stably expressing hERG
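Further: peak tail current of the secondary pulse compared with the same well before compound.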

human ether-à-go-go-related gene (hERG) potassium channel, sequence (Q12809 whole entry, looked up): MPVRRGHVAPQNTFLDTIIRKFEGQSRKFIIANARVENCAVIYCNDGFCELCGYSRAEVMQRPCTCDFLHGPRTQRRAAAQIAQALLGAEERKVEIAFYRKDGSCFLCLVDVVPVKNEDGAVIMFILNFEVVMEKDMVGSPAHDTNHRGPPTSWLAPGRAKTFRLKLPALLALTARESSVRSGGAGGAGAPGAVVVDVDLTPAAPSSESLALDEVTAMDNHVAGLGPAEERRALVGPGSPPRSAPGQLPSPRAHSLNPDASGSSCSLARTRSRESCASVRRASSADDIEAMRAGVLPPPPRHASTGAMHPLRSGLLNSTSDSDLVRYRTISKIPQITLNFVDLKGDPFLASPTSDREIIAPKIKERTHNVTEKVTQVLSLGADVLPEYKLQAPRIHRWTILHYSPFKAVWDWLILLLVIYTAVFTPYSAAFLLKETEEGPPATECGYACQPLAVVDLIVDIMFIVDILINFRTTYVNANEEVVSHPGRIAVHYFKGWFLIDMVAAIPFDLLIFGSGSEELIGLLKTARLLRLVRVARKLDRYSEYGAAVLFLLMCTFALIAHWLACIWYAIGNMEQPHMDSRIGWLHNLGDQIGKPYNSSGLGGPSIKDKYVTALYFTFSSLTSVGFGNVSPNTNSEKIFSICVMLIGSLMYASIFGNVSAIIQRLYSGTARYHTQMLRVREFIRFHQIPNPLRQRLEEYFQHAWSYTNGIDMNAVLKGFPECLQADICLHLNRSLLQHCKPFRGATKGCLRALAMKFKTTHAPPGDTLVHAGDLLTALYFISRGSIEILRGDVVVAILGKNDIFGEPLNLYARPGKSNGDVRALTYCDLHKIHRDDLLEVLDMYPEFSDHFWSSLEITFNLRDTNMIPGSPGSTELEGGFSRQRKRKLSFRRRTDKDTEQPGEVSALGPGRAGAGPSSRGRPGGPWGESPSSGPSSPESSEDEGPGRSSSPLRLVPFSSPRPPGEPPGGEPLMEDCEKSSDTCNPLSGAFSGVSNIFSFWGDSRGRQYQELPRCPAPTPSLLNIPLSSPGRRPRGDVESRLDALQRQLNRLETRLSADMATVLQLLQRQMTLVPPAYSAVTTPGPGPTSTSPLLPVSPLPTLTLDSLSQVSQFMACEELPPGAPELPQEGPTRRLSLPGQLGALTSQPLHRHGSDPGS

SMILES | hERG current change (%, negative = inhibition) at 10uM [%]
Nc1ccccc1Oc1ncc(C(F)(F)F)cc1Cl | 13.9
O=C(COC(=O)CC1c2ccccc2CCN1S(=O)(=O)c1ccccc1)Nc1ccccc1 (stereo not drawn) | -10.2
COc1cc(NC(=O)C(Cc2ccccc2)n2cccc2)cc(OC)c1 (stereo not drawn) | -17.4
O=C(NC1CC2CCCC(C1)N2C(=S)NCCc1ccccc1)C1CC1 (stereo not drawn) | 5.33
COc1ccc(CN2C(=O)COc3ccccc32)cc1 | 12
Cc1ccc(NC(=O)CCCc2nc3ccccc3c(=O)[nH]2)c(Cl)c1 | 5.16
Cc1cc(OCCCC(=O)NNC(=O)c2ccncc2)ccc1Cl | -13.4
Cn1c(=O)[nH]c(=O)c2c1nc(SCC(=O)O)n2CCCc1ccccc1 | 3.89
COc1ccc(NC(=O)CN(C)C(=O)/C=C/c2ccc(S(=O)(=O)N3CCCCCC3)cc2)cc1 | 7.14
O=C(N1CCCC1)C12CCC3CC(CC(C3)C1)C2 | -10.9
O=C(Nc1ccc(-c2nc3ccccc3[nH]2)cc1)c1ccco1 | -18.4
CC1CCc2c(C(=O)NCCCN3CCOCC3)csc2C1 (stereo not drawn) | -8.95
CC1CC(C)CN(CC(O)COC2CC(C)CC(C)(C)C2)C1.Cl (stereo not drawn) | -32.3
CC(/C=C/c1ccco1)=N/NC(=O)C1COc2ccccc2O1 (stereo not drawn) | -1.45
O=C(CSc1nc2ccccc2n1CC(=O)N1CCOCC1)N1CCCC1 | 14.7
CN(CC(=O)Nc1ccc(F)cc1)C(=O)COC(=O)c1cccc(N(C)C)c1 | -3.9
Cc1cnc(NC(=O)COc2ccccc2Cl)s1 | 1.15
N#CCC(=O)Nc1ccc(C(=O)NNC(=O)CCN2CCN(c3ccccc3)CC2)cc1 | -5.56
CCOc1ccc(S(=O)(=O)N2CCCCC2)cc1NC(=O)CN1C(=O)NC(C)(c2ccc(C)cc2)C1=O (stereo not drawn) | -10.4

SMILES | hERG current change (%, negative = inhibition) at 10uM [%]
CCCN(CCC(=O)Nc1ccccc1F)CC1CC1 | -0.259
COCCn1c(=S)[nH]c2cc(C(=O)NCC3CCCO3)ccc2c1=O (stereo not drawn) | -8.8
CCCCn1c(N)c(N(CCOC)C(=O)COC(=O)c2cc(CC)c(C)s2)c(=O)[nH]c1=O | 22
CCOC(=O)c1ccccc1NC(=O)CSc1ccccc1 | -14.7
Cc1ccccc1N1C(=O)C2CCCN2C1=S (stereo not drawn) | 12.6
COc1cccc(C(=O)Nc2cccc(-c3ccccc3)c2)c1 | 12.8
Cc1cccc(C(=O)NCc2nnc(SCC(=O)Nc3nnc(C)s3)n2C)c1 | 1.37
OCC1(CCCc2ccccc2)CCN(Cc2ccc(F)cc2)CC1 | -72.9
Cc1ccc(C2NC(=O)c3c(sc4c3CCN(C)C4)N2)o1 (stereo not drawn) | -23.4
C[n+]1ccccc1N1CCN(c2ccccc2Cl)CC1.[I-] | -7.69
O=C(OCC(=O)N1CCCC1)c1cncc(Br)c1 | 22.6
O=C(COC(=O)c1cncc(Br)c1)NCc1ccc2c(c1)OCO2 | 4.54
Cc1ccc(NC(=O)c2ccc(-c3nn(C)c(=O)c4ccccc34)cc2)c(C)c1 | -42.4
CCC(Oc1ccc(C)cc1)C(=O)Nc1ccc(S(=O)(=O)Nc2nccs2)cc1 (stereo not drawn) | 3.46
O=C(O)CNC(=O)CCn1nnc2ccccc2c1=O | 6.5
CCCCN(CC)Cc1ccc(CNC(=O)Nc2ccc(OCC)cc2)o1 | -15.1
CC(=O)Nc1ccc(C2=NN(c3ccccc3)C(c3cccs3)C2)cc1 (stereo not drawn) | 7.7
CCCN1CCC(NC23CC4CC(CC(C4)C2)C3)CC1 | 22.1
O=C(NCc1ccccn1)c1cc(-c2ccc(Cl)cc2)nc2ccccc12 | -30.9

SMILES | hERG current change (%, negative = inhibition) at 10uM [%]
COC(=O)Nc1ccc(S(=O)(=O)NCc2ccccn2)cc1 | 4.31
N#Cc1c(NC(=O)C2CC(c3ccccc3O)=NO2)sc2c1CCC2 (stereo not drawn) | 5.45
COc1ccc(S(=O)(=O)NCC2CCCN(Cc3ccccc3Cl)C2)cc1 (stereo not drawn) | -37.9
O=C(NCC1CC1)NC(=O)c1c(F)cccc1Cl | 13.4
Nn1c(SCC(=O)Nc2ccc(F)cc2)nnc1-c1ccccn1 | -53.6
Cc1cc(=O)c2cc(Br)ccc2[nH]1 | 8.12
Cn1c(NC(=O)CC2CCCCC2)cc(=O)n(C)c1=O | -15.4
CCOc1ccc(NC(=O)C(C)Sc2nnc(C)n2C)cc1 (stereo not drawn) | -7.86
CC(=O)CCc1c(C)[nH]c2ccc(NC(C)=O)cc2c1=O | 11.9
COc1ccc(Cc2nc3ccc(C(=O)NCCSC)cc3o2)cc1 | 6.36
O=C(Nc1ccc(C(=O)N2CCN(c3ccccc3)CC2)cc1)C1=CSCCO1 | -39.8
Cc1cccc(NC(=O)C2CCN(C(=O)[C@@H]3Cc4ccccc4CN3)CC2)c1 | -67.2
Cc1ccc(CN(C(=O)c2csnn2)C(C(=O)NC2CCCC2)c2ccc(C)o2)cc1 (stereo not drawn) | 1.37
C[N+](C)(CCOc1ccccc1)Cc1ccccc1.O=C(O)c1cc2ccccc2c(Br)c1[O-] | 3.81
Cc1ccc(C)c(CN2C(=O)C3CCCN3c3ccc(S(=O)(=O)N4CCOCC4)cc32)c1 (stereo not drawn) | 13.1
O=C(Nc1ccccc1)N(C1=NCCC1)c1ccc(OC(F)F)cc1 | -33.1
O=C(NCc1ccc(F)cc1)c1cccc(NC2=NC3CS(=O)(=O)CC3S2)c1 (stereo not drawn) | -0.333
COc1ccc(-c2nc3c(c(=O)n(C)c(=O)n3C)n2CC2CC(c3ccccc3)=NO2)cc1OC (stereo not drawn) | -27.8
COc1ccc2[nH]cc(CCNS(=O)(=O)c3ccc(NC(C)=O)cc3)c2c1 | 14.5
